The values that follow come from the RNAGym collection of RNA variant scans (doi:10.1093/nar/gkz1192).

B1: CPEB3 Ribozyme (parent)
chain: UAACAGGGGGCCACAGCAGAAGCGUUCACGUCGCAGCCCCUGUCAGAUUCUGGUGAAUCUGCGAAUUCUGCUGUAUAUCUC

Read counts are not given, so values of variants with three or more changes are uncertain.

This data set covers variants of B1. Description: self-cleavage, relative activity (ratio to wild type); higher = more cleavage; in vitro, sequencing. The essentials:
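Libraries of CPEB3 self-cleaving ribozyme mutants came from rounds of error-prone PCR and carried barcodes, which DNA sequencing matched to variants. In vitro transcription used T7 RNA polymerase at 37°C for 5 hours, with a further 15 min in DNase I before EDTA stopped the reaction; the ribozymes cleaved during both steps. The RNA was reverse transcribed with template switching and sequenced on Illumina. Relative activity is the cleaved/total read fraction of a variant divided by that of the unmutated ribozyme, averaged over three batches with at least 5 reads.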
Turning to A5G A13U A15G A18U A35G U67C C81A, the self-cleavage is 0.25.
For A5G A20G U26A U41C A64G U67C G70C, the self-cleavage is 0.1.
Consider C4U U41C U60A, for which the self-cleavage was determined as 0.91.
With A5G A28G U80A the figure was 0.47; with A5G A56U C62U, 0.12.
Turning to A5G A21G A28C U31C C40U C44U, the self-cleavage came to 0.06.
In the case of A5G A20U C29U C38U U60A A65G A75U, the self-cleavage came to 0.03.
Consider A5C A15U A20G U66C G70A U72C, for which the self-cleavage is 0.13.
On to A5G A15G U26G U69A, for which the self-cleavage was determined as 0.17.
On to C4U U25C A45G U51G U69C, for which the self-cleavage is 0.16.
As for A5G A18G A35G A64G, the self-cleavage stood at 0.56.
Turning to C4A U26A U31C U58A C71A, the self-cleavage was 0.09.
On to A5G C11G A20G U26C, for which the self-cleavage was 0.47.
As to A5C C11U G19U A57G C59U, the self-cleavage is 0.44.
Turning to A5G A15G A18G A20G C50A A65G U72C, the self-cleavage amounted to 0.08.
In the case of A5G A21G U76C, the self-cleavage was determined as 0.52.
As for A5G C29U U49A C71U, the self-cleavage stood at 0.11.
In the case of C4G A20G G53A U67A U69G, the self-cleavage came out at 0.26.
In the case of A5G A15U C44A U76A, the self-cleavage was 0.64.
A5G A18G U25A U66C: the self-cleavage worked out at 0.44.
With C4G U41C U69A C71U U78C the figure was 0.34.
As for C4U U31C U74C, the self-cleavage was found to be 1.24.
With A5G A18U A28U U41C U49A U60A, the self-cleavage turned out to be 0.09.
With C4U U69C U78C the figure was 0.95.
For the variant A5C A20C A45G U80C, the self-cleavage was 0.45.
Consider A5G C11G U25C A28G G52A, for which the self-cleavage was 0.24.
For A5G A15G A18G G46A G52A C62G, the self-cleavage came out at 0.3.
With A5G C11A A64U the figure was 0.27.
As for A5G A20U U41C U51C, the self-cleavage worked out at 0.08.
For the variant A5C A35U U67C U72C, the self-cleavage was found to be 0.2.
With A5C C11U A56C A57G U80C the figure was 0.08.
As for C4U A15G A35G U48C U67C U78A, the self-cleavage was found to be 0.17.
A5G A15G G16U A18U U26C U43C U78C: the self-cleavage stood at 0.17.
As to C4U G7A A21G U25C U26A A64G U69A, the self-cleavage was found to be 0.12.
With A5G A20G U25C A65G the figure was 0.32.
Regarding A5G A18U U43A U60A, the self-cleavage came to 0.16.
A5G A21G A47U A65G A75G: the self-cleavage was found to be 0.11.
In the case of A5G A45U A47G U66C, the self-cleavage was determined as 0.29.
Regarding C4U U49C U54C U80A, the self-cleavage came to 0.63.
Take A5C C11G A45G G70C A75U: the self-cleavage came to 0.14.
C4U G6A A18U A64G A75U: the self-cleavage turned out to be 0.08.
A5G A21G C50G G55A: the self-cleavage came out at 0.06.
With A5G A18G U41C the figure was 0.32; with C4U A21G A28G, 0.5.
As for A5G C12A A20G A35U U49G U80C, the self-cleavage amounted to 0.2.
Regarding A5G A18U U43C U48C, the self-cleavage is 0.2.
For A5G A13G A18G U25C, the self-cleavage was 0.06.
As for A5G A35G A75G, the self-cleavage is 1.27.
As to A5G A57G U78C, the self-cleavage came out at 0.25.
With A5G A20U A35G U54A U72G the figure was 0.19; with A5G C17U U25C C40A U60A A64G, 0.26.
With C4A U51C U69A A75G the figure was 0.75.
With C4G U31C U76A the figure was 1.06; with C4U C12U A21G U31C U48C U74A U78A, 0.23.
Regarding A5G A15G U54G G73A, the self-cleavage was determined as 0.57.
A5G A20G U26C: the self-cleavage worked out at 0.06.
Consider A5G A20G A64G G70U, for which the self-cleavage is 0.23.
With A5G A13U U31C A64C the figure was 0.19; with A5G A15G A20U U43C U76C, 0.42.
In the case of A5G A18U A64G, the self-cleavage amounted to 0.41.
Regarding A5G C27G A47G, the self-cleavage came to 0.54.
Regarding A5G A28U U54C U58C G73C, the self-cleavage was determined as 0.62.
In the case of A5G A18G A28G U66C, the self-cleavage was determined as 0.41.
Turning to C4U U41A A64G, the self-cleavage is 0.26.
C4U G6U U58A U60G U69C: the self-cleavage was found to be 0.1.
As for A5G A13G A35U C62U, the self-cleavage was found to be 0.04.
As for A5G A13G A35U, the self-cleavage stood at 0.74.
Regarding A5C G8U U80C, the self-cleavage worked out at 0.36.
With C4U U25A C32U U43C the figure was 0.13; with A5G A13G A35U U60C A64G C81U, 0.07.
With A5C U26C U76C the figure was 0.59; with A5G A35G U67C, 0.85.
On to A5G A28U U43G U49C, for which the self-cleavage is 0.45.
With C4A U26A A28U C38A U43C G61A U80C the figure was 0.12; with A5C A20G U31A U49C U67C, 0.19.
For the variant A5G C23U A35G C50A U58C U60C U67C, the self-cleavage came out at 0.13.
Take A5G A15C U41C U69C: the self-cleavage is 0.35.
Take C4U A20G U25C A45G: the self-cleavage is 0.3.
Turning to A5C C37A U51C A77G, the self-cleavage is 0.34.
With A5G A20U C32U U49A A57G A64U the figure was 0.08; with A5G C11U A28G U43C, 0.07; with C4U U26A U41A U43A U60C U72C, 0.23.
With A5G A21U U43C the figure was 0.3.
Consider A5G A13U A45G A57G U72C, for which the self-cleavage is 0.18.
